Test results: publication PMC4336329 (PLoS ONE, 2015)
Screen size: about 310,000 compounds; about 14,000 (4.5%) showed an effect of 50% or more. The effect is printed as a negative number. The list shows a part of the results.

biological target: human ether-à-go-go-related gene (hERG) potassium channel (human, UniProt Q12809); test: primary screen, population patch clamp on CHO cells stably expressing hERG
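Further: peak tail current of the secondary pulse compared with the same well before compound.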

Sequence of human ether-à-go-go-related gene (hERG) potassium channel (Q12809 whole entry, looked up): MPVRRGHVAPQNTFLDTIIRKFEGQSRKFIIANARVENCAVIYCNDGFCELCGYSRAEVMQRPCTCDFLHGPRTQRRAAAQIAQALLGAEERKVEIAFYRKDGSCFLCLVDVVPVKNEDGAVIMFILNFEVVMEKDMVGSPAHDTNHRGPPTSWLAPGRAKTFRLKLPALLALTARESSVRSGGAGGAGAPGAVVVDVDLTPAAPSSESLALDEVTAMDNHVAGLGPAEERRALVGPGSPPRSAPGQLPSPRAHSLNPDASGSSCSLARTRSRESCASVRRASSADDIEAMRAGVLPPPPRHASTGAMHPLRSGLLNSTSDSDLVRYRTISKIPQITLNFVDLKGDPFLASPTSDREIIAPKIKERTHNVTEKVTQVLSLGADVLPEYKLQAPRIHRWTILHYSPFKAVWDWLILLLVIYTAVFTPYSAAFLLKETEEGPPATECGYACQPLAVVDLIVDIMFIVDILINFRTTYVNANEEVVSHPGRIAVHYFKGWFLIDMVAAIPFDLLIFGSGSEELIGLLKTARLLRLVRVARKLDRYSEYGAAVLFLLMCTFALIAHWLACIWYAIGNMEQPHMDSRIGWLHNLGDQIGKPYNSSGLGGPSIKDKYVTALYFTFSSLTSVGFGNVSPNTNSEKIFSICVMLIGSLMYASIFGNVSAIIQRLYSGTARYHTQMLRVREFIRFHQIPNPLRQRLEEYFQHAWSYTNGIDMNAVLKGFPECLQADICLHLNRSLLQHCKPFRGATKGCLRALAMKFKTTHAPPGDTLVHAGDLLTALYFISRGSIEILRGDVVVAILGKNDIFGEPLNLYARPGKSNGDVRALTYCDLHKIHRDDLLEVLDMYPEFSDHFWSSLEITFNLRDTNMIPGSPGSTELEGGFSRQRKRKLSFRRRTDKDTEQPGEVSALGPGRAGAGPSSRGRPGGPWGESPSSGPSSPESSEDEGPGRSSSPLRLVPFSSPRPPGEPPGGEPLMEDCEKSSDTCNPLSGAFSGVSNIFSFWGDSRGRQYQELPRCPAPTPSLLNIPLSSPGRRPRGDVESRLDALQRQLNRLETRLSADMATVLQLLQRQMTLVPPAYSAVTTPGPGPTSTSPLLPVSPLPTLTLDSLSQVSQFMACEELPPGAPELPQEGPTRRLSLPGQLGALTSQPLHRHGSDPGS

SMILES | hERG current change (%, negative = inhibition) at 10uM [%]
O=c1cc(-c2ccc(Cl)cc2)nc(N2CCN(c3ccccc3)CC2)[nH]1 | 15
O=C(Nc1cccc(S(=O)(=O)NCc2ccco2)c1)c1cc(-c2ccccc2)nc2ccccc12 | 0.601
COc1cc(OC)nc(-n2ncc(Br)c(Br)c2=O)n1 | -6.15
N#Cc1c(/N=C/c2cc3ccccc3s2)sc2c1CCC2 | 18.7
COCCCNC(=O)c1nc2ccccc2c(=O)n1NC(=O)Nc1c(Cl)cccc1Cl | 14.2
O=C(Nc1ccc(Cl)cc1)OCc1cn(-c2ccccc2)nn1 | 10.8
CCn1ccnc1CN(C)C(=O)c1cc(COc2ccc(Cl)cc2OC)on1 | -12.3
O=C(N/N=C/c1ccc2c(c1)OCO2)c1sc2cc(Cl)ccc2c1Cl | -11.1
Cc1ccccc1N1CCN(C2CCCN(C(=O)CN3CCCC3=O)C2)CC1 (centres unmarked) | 5.78
N#Cc1c(C(F)(F)F)cc(-c2ccccc2)nc1SCc1nc(N)nc(N2CCOCC2)n1 | -3.22
O=C1N/C(=N\N=C\c2cccs2)SC1Cc1cccc(Cl)c1 (centres unmarked) | 12.6
CC1(C)CC(=O)CC(C)(C)N1OC(=O)c1ccncc1 | 3.53
Cc1cccc(-n2ncc3c(N(C)Cc4ccccc4)ncnc32)c1 | 8.54
CCCCOC(=O)c1ccc(NC(=O)c2c(O)[nH]c(=O)[nH]c2=O)cc1 | 1.86
COC(=O)c1c(CSc2cccc(C)c2)noc1C(=O)NCc1ccco1 | -22.3
COC(=O)C1=C(C(=O)OC)SC2(S1)C(C(=O)OC)=C(C(=O)OC)SC1=C2c2cccc(C)c2NC1(C)C | -51.6
COc1ccc(C)cc1NC(=O)C(OC(=O)c1ccc([N+](=O)[O-])o1)c1ccccc1 (centres unmarked) | 8.23
Cc1ccc(-c2nn(-c3cc(Cl)ccc3[N+](=O)[O-])c(=O)c3ccccc23)cc1 | -22.1
CCCCSc1nnc2[nH]c(=O)cc(N)n12 | -14.3
Cc1ccc(N/N=C(\Cc2nc3ccccc3[nH]2)c2ccccc2)cc1 | -8.21
Cc1ccnc2nc(C(=O)NCCc3ccc(F)cc3)nn12 | 16.3

SMILES | hERG current change (%, negative = inhibition) at 10uM [%]
Cc1cc(C(=O)Nc2ccccc2N2CCOCC2)c2ccccc2n1 | -15.5
CCOc1ccc(CC(=O)C2C(=O)CCCC2=O)cc1OCC | 4.17
CCCN1CCN(CCCNC(=O)Cn2nc(-c3ccc(C)cc3)ccc2=O)CC1 | -24.6
COc1cc(C)c(S(=O)(=O)Nc2ccc(CC(=O)O)cc2)cc1C | -9.44
COc1ccc2sc(N(CCCN(C)C)C(=O)c3ccc(S(=O)(=O)N4CCCC4)cc3)nc2c1.Cl | -43.9
CCOc1cc(C)ccc1OCc1nnc(SCC(=O)c2cccc([N+](=O)[O-])c2)n1CC | -7.11
CCOC(=O)C1CCCN(CC(=O)NC2=Nc3ccccc3N=C(C)C2c2ccccc2)C1 (centres unmarked) | -46.9
O=C(OCc1cn(-c2ccc(Cl)c(Cl)c2)nn1)c1ccccc1 | 0.801
COC(=O)c1cccc(NC(=O)CCNC(=O)c2ccc([N+](=O)[O-])cc2)c1 | -48
COc1cccc(N2C(=O)C3CCCN3C2c2cccs2)c1 (centres unmarked) | 15
O=C(COC(=O)/C=C/c1ccccc1)Nc1cccc(Oc2ccccc2)c1 | 9.05
Cc1cccc([N+](=O)[O-])c1NC(=O)COC(=O)c1nc2nccc(C)n2n1 | 14.4
O=C(CSc1ccc2nnc(CCNC(=O)c3ccccc3)n2n1)Nc1ccccc1F | 5.7
O=C(CSc1nc2ncc(Br)cc2[nH]1)c1cccc([N+](=O)[O-])c1 | -45.7
CCCn1nc(C(=O)NNC(=O)c2cc(S(=O)(=O)NC)ccc2Br)c2ccccc2c1=O | 14.4
Cc1cccc(OCCN2CSC(=S)N(C)C2)c1 | 6.92
COc1ccc(OCc2cc(C(=O)NCCc3ccccc3)no2)c(Cl)c1 | 11.1
O=C(Nc1nnc(COc2ccc(Cl)cc2)s1)c1ccco1 | 29.6
CC(C)C[C@H]1C(=O)N2CCCC2[C@]2(O)O[C@](NC(=O)[C@@H]3C=C4c5cccc6[nH]cc(c56)CC4N(C)C3)(C(C)C)C(=O)N12 (some centres unmarked) | -16.6
COCCCN(C(=O)C(C)Oc1ccc(Br)cc1)c1c(N)n(Cc2ccccc2)c(=O)[nH]c1=O (centres unmarked) | 14.2
CSCCC1C(=O)OC2(C)CC(C)(C)NC(=S)N12 (centres unmarked) | -2.46

SMILES | hERG current change (%, negative = inhibition) at 10uM [%]
CC1CC(C)(C)NC(C)c2ccccc21.Cl (centres unmarked) | 5.29
O=C(CSc1ccccc1)Nc1ccc(N2CCOCC2)c(F)c1 | 11.8
Cl.O=C(c1cccc(F)c1)N1CCC(O)(c2cccnc2)CC1 | 18.1
CCOC(=O)C1(c2ccccc2)CCN(CC(=O)Nc2cccc3ccccc23)CC1 | 2.87
COc1ccccc1OCC(=O)N(Cc1nnc(-c2ccccc2Cl)o1)C1CC1 | -44.2
COc1cc(/C=N/NC(=O)Cc2ccccc2)cc([N+](=O)[O-])c1O | 10
CC(=O)O[C@@H]1/C=C/[C@](C)(O)C[C@@H](C)C/C=C/[C@H]2[C@@H]3O[C@]3(C)[C@@H](C)[C@H]3[C@H](Cc4ccccc4)NC(=O)[C@@]312 | 16
Cc1ccc(C(=O)Oc2ccc(C(=O)COC(=O)c3cnccn3)cc2)cc1 | -10.4
COc1nc2ccc(C)cc2cc1-c1noc(-c2cccnc2)n1 | 9.23
COCCNC(=O)Cn1ncc2ccsc2c1=O | 23.2
CCOc1ccccc1NC(=O)N1CCC(C(=O)c2ccc(F)cc2)CC1 | -32
O=C(CSc1ccccc1)NCc1cccnc1 | 6.07
CCOC(=O)C1CCN(C2CCN(C(=O)c3oc4c(C)c(C)ccc4c3C)CC2)CC1 | -69.3
O=C(OCC(=O)N1CCN(C(=O)c2ccco2)CC1)c1cc(-c2ccc(Cl)c(Cl)c2Cl)nc2ccccc12 | 2.88
Cn1cnnc1SCc1cccc(Br)c1 | 0.347
Cc1cnc(NC(=O)CCCSc2nc3ccccc3s2)s1 | 6.21
Cc1ccc(C2CC(c3ccccc3)=NN2C(=O)CSc2nnc(-c3ccc(Cl)cc3)o2)o1 (centres unmarked) | 4.25
CC(=C/c1ccccc1)/C=N/Nc1nc(N2CCOCC2)nc(N2CCOCC2)n1 | -16.9
O=C(CCc1nc2ccccc2c(=O)[nH]1)NNC(=O)c1cccc(Cl)c1 | 2.51
Cc1[nH]c(=O)[nH]c(=O)c1S(=O)(=O)N1CCCC(C(=O)N2CCC(Cc3ccccc3)CC2)C1 (centres unmarked) | 15.1
Nc1nnc(SCc2ccc(Cl)cc2)s1 | -0.0745

SMILES | hERG current change (%, negative = inhibition) at 10uM [%]
COc1ccccc1C(=O)COC(=O)c1cc(=O)[nH]c2ccccc12 | 1.74
Cc1cc(=O)oc2cc(OCC(=O)N3CCN(c4ccccc4)CC3)ccc12 | -36.6
COC(=O)C1=C(c2ccc(OC)c(OC)c2)C[C@@H]2CC[C@H]1N2C(=O)NCCCOC(C)C | 15.3
CCn1ccnc1CN(C)C(=O)c1cc(COc2c(F)cccc2F)on1 | 8.9
CN(Cc1cccc(F)c1)C(=O)c1cc(=O)[nH]c2ccccc12 | 1.39
CCN1N=C(c2cc(Cl)sc2Cl)CSC1=O | -3.22
Nc1ccc(C(=O)Nc2ccc(NC(=O)c3ccco3)c(O)c2)cc1 | 24.7
CCCCN(CC)CCNc1c(N2CCN(C(=O)OCC)CC2)c(=O)c1=O | 11.4
COc1ccc(-n2c(=O)[nH]c3cc(C(=O)NCCc4ccc(Cl)cc4)ccc3c2=O)cc1OC | 10.6
COc1ccc(C2C(C(=O)N3CCC4(CC3)OCCO4)c3cc(OC)c(OC)cc3C(=O)N2C)cc1 (centres unmarked) | 12.3
CCN(CC)S(=O)(=O)c1ccc(OC(C)C)c(NC(=O)c2c3c(nc4ccccc24)CCN(Cc2ccccc2)C3)c1 | -17.7
Cc1ccc(-n2c(SCC(=O)N3CCOCC3)nc(O)c(Cc3ccccc3)c2=O)cc1 | 9.15
O=C([O-])Cc1ccccc1Nc1c(Cl)cccc1Cl.[Na+] | 3.03
CCOc1cccc2sc(N(CCCN(C)C)C(=O)c3ccc(S(=O)(=O)N(C)CC4CCCO4)cc3)nc12.Cl (centres unmarked) | -77.4
Cc1nc2ccc(C(=O)N3CCN(Cc4ccccc4)CC3)cc2[nH]1 | 17.1
Cn1nc(C(F)(F)F)c(C(=O)Nc2ccc(F)cc2F)c1Oc1cccc(Cl)c1 | -12.1
COc1ccc(OC)c(N/C(C)=C/C(=O)c2ccncc2)c1 | -24.3
COC(=O)CCC(=O)Nc1ccc2oc3c(c2c1)CCCC3 | 3.69
S=C(NC1CCCC1)N1CCN(c2ccccn2)CC1 | -16.9
COCC(=O)NC1CC2CCC(C1)N2C(=S)Nc1ccccc1C(=O)OC (centres unmarked) | 2.87
